Measurements taken from PubChem BioAssay AID1508624 (National Center for Advancing Translational Sciences (NCATS), 2021).
The campaign covered roughly 48,000 compounds. About 120 (0.25%) were called active. About 4% were inconclusive and are not listed. Calls follow the shape of the dose curve; as a rule, active = well fitted activation curve with a large enough effect; inconclusive = small, poorly fitted or top-dose-only effect, or another doubt; inactive = no such curve, though single readings can be large or run the other way. The list shows a part of the results.

Assay: Primary qHTS for Identification of Small Molecule Activators of Huntingtin-Antisense Promoter Activity; also: nearly all actives have a fitted effect of over 55% in size
Conditions: HEK293 HTT-AS promoter firefly luciferase reporter, 24 h; series mostly up to 57.5 µM; activity change, positive = activation: at the top concentration
Procedure, shortened: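 Quantitative HTS used concentration series of up to 57.5 uM final on HEK293 luciferase reporter cells, 24 h at 37 degrees C. Readout was Dual-Glo firefly luminescence.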

Q: Which “activity change, positive = activation” value does the source give for `CCCCC(=O)OCc1cc(=O)n2nc(C3CCCCC3)sc2n1` here?
A: Its value is inactive: -11.7%.

Q: For `CCC1CN(C(=O)Nc2cc(C)ccc2OC)c2cc(Cl)ccc2O1` (configuration not stated), which “activity change, positive = activation” value is on record?
A: The value was inactive: -22.1%.

Q: Which “activity change, positive = activation” value does the source give for `COC(=O)c1ccc(NC(=O)CC2Nc3cc(C)c(C)cc3NC2=O)cc1` (configuration not stated) here?
A: Its value is inactive: -75.7%.

Q: For `COc1ccccc1NCc1cccn1-c1nnc(N2CCCCCC2)s1`, which “activity change, positive = activation” value is on record?
A: Its value is inactive: -52.1%.

Q: Which “activity change, positive = activation” value does the source give for `Cc1cc(C)n(-c2nc3ccccc3nc2Nc2ccc(Cl)c(Cl)c2)n1` here?
A: Its value is inactive: -9.49%.

Q: Which “activity change, positive = activation” value does the source give for `Cc1cc(C)cc(OCC(=O)NC(Cc2c[nH]c3ccccc23)C(=O)O)c1` (configuration not stated) here?
A: Its value is inactive: -14.1%.

Q: With `CCOc1ccc(S(=O)(=O)Nc2ccc3oc(C)c(C(=O)OC(C)C)c3c2)cc1` as the molecule, how does the “activity change, positive = activation” value read?
A: The value was inactive: -6.95%.

Q: Which “activity change, positive = activation” value does the source give for `Cc1cccc(OCC(=O)Nc2c(C(=O)N3CCN(c4ccccc4F)CC3)oc3ccccc23)c1` here?
A: Its value is inactive: -10.4%.

Q: Which activity change, positive = activation does the source give for `CCOc1cc(N)c(Cl)cc1C(=O)NCC1CN(Cc2ccc(F)cc2)CCO1` (configuration not stated) here?
A: Its activity change, positive = activation is “inactive”.

Q: With `Cc1ccc(NC(=O)N2CC3CCCN3c3ccccc32)c(C)c1` (configuration not stated) as the molecule, how does the “activity change, positive = activation” value read?
A: Its value is inactive: -2.9%.

Q: Which “activity change, positive = activation” value does the source give for `Fc1ccc(-n2ncc3c(N4CCCCCC4)ncnc32)cc1` here?
A: The value was inactive: -49.5%.

Q: For `Cc1ccc(-c2cc(C(=O)N(Cc3ccc(C(C)(C)C)cc3)Cc3ccco3)no2)cc1`, which “activity change, positive = activation” value is on record?
A: The value was inactive: 6.05%.

Q: For `COc1ccc(NC(=O)c2ccco2)cc1NC(=O)COc1ccc(Cl)c(C)c1`, which “activity change, positive = activation” value is on record?
A: Its value is inactive: -32%.

Q: Which “activity change, positive = activation” value does the source give for `Cc1cc(N2CCN(c3cccc(C(F)(F)F)c3)CC2)n2nc(-c3ccccc3)nc2n1` here?
A: Its value is inactive: 5.87%.

Q: With `CCc1cccc(C)c1NC(=O)CCn1c(=O)c2cccn2c2ccccc21` as the molecule, how does the “activity change, positive = activation” value read?
A: Its value is inactive: -12.4%.

Q: For `CC(C)C(=O)NCC1(N(C)C)CCCCC1`, which “activity change, positive = activation” value is on record?
A: Its value is inactive: 13.5%.

Q: With `Cc1ccc(NS(=O)(=O)c2cc3[nH]c(=O)c(=O)[nH]c3cc2C)cc1Cl` as the molecule, how does the “activity change, positive = activation” value read?
A: Its value is inactive: -13%.

Q: For `CCOc1ccc(C(=O)Nc2c(C(=O)N3CCN(c4ccccc4F)CC3)oc3ccccc23)cc1`, which “activity change, positive = activation” value is on record?
A: The value was inactive: 38.1%.

Q: For `CCOc1ccc(N2C(=O)c3n[nH]c(-c4cccs4)c3C2c2cccc(F)c2)cc1` (configuration not stated), which “activity change, positive = activation” value is on record?
A: The value was inactive: -21.9%.

Q: For `CCOC(=O)c1ccc(-n2c(-c3ccc(C)cc3)c(C)n3c4c(=O)n(C)c(=O)n(C)c4nc23)cc1`, which “activity change, positive = activation” value is on record?
A: Its value is inactive: -0.0123%.

Q: With `COc1ccc(-c2cc(-c3ccc4c(c3)NC(=O)CO4)nc3c2COc2ccc(F)cc2-3)cc1` as the molecule, how does the “activity change, positive = activation” value read?
A: The value was inactive: 0.378%.

Q: Which “activity change, positive = activation” value does the source give for `CCN(CC)S(=O)(=O)c1ccc2c(c1)N(CC(=O)N1CCN(c3cccc(OC)c3)CC1)C(=O)CO2` here?
A: The value was inactive: -9.16%.

Q: Which “activity change, positive = activation” value does the source give for `CCOc1ccccc1CNC(=O)c1ccc2c(c1)nc1n2CCCCC1` here?
A: Its value is inactive: 23.5%.

Q: With `Cc1c(Nc2nc3ccccc3n3c(C)nnc23)cccc1C(=O)O` as the molecule, how does the “activity change, positive = activation” value read?
A: Its value is inactive: -8.88%.

Q: With `Cc1ccc(Cl)cc1-n1ncc2c(NCCCc3ccccc3)ncnc21` as the molecule, how does the “activity change, positive = activation” value read?
A: The value was inactive: -30%.

Q: For `CCc1ccc(NC(=O)c2ccc(F)c(S(=O)(=O)NCc3ccc(Cl)c(Cl)c3)c2)cc1`, which “activity change, positive = activation” value is on record?
A: Its value is inactive: -37.4%.

Q: For `COc1ccc(Br)cc1CNC(=O)CCSCc1ccc(C)cc1`, which “activity change, positive = activation” value is on record?
A: The value was inactive: -20.2%.

Q: With `Cc1ccc(S(=O)(=O)N2CCN(Cc3nc4ccc(C)cc4o3)CC2)cc1` as the molecule, how does the “activity change, positive = activation” value read?
A: Its value is inactive: -18.7%.

Q: Which “activity change, positive = activation” value does the source give for `O=C(CS(=O)(=O)c1cccc2nsnc12)N1CCN(c2cccc(C(F)(F)F)c2)CC1` here?
A: Its value is inactive: -27.4%.

Q: For `O=C(Cn1cc(S(=O)(=O)c2ccccc2)c(=O)c2cc3c(cc21)OCO3)Nc1ccc(Cl)cc1`, which “activity change, positive = activation” value is on record?
A: The value was inactive: -21.6%.

Q: Which “activity change, positive = activation” value does the source give for `CCNc1cc(N2CCN(C3CCCCC3)CC2)c2noc3c2c1C(=O)c1ccccc1-3` here?
A: The value was inactive: -9.83%.

Q: With `CSc1ccc(CCNC(=O)c2ccc(-c3nc(COc4ccc(C)cc4)c(C)o3)cc2)cc1` as the molecule, how does the “activity change, positive = activation” value read?
A: Its value is inactive: 10%.

Q: For `O=C1NC(=O)C(=Cc2ccc3nccc(-c4ccncc4)c3c2)S1`, which “activity change, positive = activation” value is on record?
A: The value was inactive: -32.4%.

Q: For `CCOC(=O)CSc1nc2ccccc2c(=O)n1-c1cccc(C)c1`, which “activity change, positive = activation” value is on record?
A: The value was inactive: -7.94%.

Q: With `O=C(O)Cc1ccc(NC2(c3ccccc3)C(=O)c3ccccc3C2=O)cc1` as the molecule, how does the “activity change, positive = activation” value read?
A: Its value is inactive: -1.18%.

Q: For `COC(=O)c1ccccc1NC(=O)C1=C(C)C(=O)OC12CCCCCC2`, which “activity change, positive = activation” value is on record?
A: The value was inactive: -15.8%.

Q: For `COc1ccc(C(=O)Nc2ccccc2SCc2cc(=O)c3cccc(C)c3[nH]2)cc1`, which “activity change, positive = activation” value is on record?
A: The value was inactive: -2.99%.

Q: Which “activity change, positive = activation” value does the source give for `COc1ccc(S(=O)(=O)NCCS(=O)(=O)N2CCN(c3ccccc3)CC2)cc1C` here?
A: Its value is inactive: -23.8%.

Q: Which “activity change, positive = activation” value does the source give for `COc1ccc(N2CCN(Cc3cccn3-c3nnc(N4CCN(C5CCCCC5)CC4)s3)CC2)cc1` here?
A: Its value is inactive: -22%.

Q: Which “activity change, positive = activation” value does the source give for `Cc1nc(SC(C)C(=O)Nc2ccccc2Cl)cc(-c2ccccc2)n1` (configuration not stated) here?
A: Its value is inactive: -30.7%.

Q: For `CCn1cc(C(=O)N2CCN(c3cc(C)ccc3C)CC2)c(=O)c2cc(S(=O)(=O)N3CCCCC3)ccc21`, which activity change, positive = activation is on record?
A: Its activity change, positive = activation is inactive: 5.43% [at 11.5 µM, percent change from vehicle, -100% = no light].

Q: With `CCOc1ccc(-n2nc(CO)c(C(=O)NCc3cccs3)n2)cc1` as the molecule, how does the “activity change, positive = activation” value read?
A: Its value is inactive: 9.95%.

Q: With `Cc1ccc([N+](=O)[O-])cc1S(=O)(=O)N1CCn2cccc2C1c1ccccc1` (configuration not stated) as the molecule, how does the “activity change, positive = activation” value read?
A: Its value is inactive: -19.2%.

Q: With `CC(Oc1ccc(Br)cc1)C(=O)Nc1ncn[nH]1` (configuration not stated) as the molecule, how does the “activity change, positive = activation” value read?
A: Its value is inactive: -6.77%.

Q: Which “activity change, positive = activation” value does the source give for `COc1ccc(NC(=O)CCc2nnc3n(Cc4ccccc4Cl)c(=O)c4ccccc4n23)cc1` here?
A: The value was inactive: 1.27%.

Q: With `Cc1ccc2nc(-c3ccc(Cl)c(NC(=O)COc4ccc(C(C)C)cc4)c3)oc2c1` as the molecule, how does the “activity change, positive = activation” value read?
A: The value was inactive: 18%.

Q: With `Cc1ccc(C)c(NC(=O)C2CCCN(S(=O)(=O)c3cn(C)cn3)C2)c1` (configuration not stated) as the molecule, how does the “activity change, positive = activation” value read?
A: The value was inactive: -0.768%.

Q: For `CC(N)C(=O)OC(C)(C)Cc1ccc(Cl)cc1` (configuration not stated), which “activity change, positive = activation” value is on record?
A: The value was inactive: -5.92%.

Q: For `Cc1ccc(N2C(=O)N(Cc3cc(=O)n4ccccc4n3)c3ccccc3S2(=O)=O)cc1Cl`, which “activity change, positive = activation” value is on record?
A: The value was inactive: -31.3%.

Q: For `CCOc1ccccc1CNC(=O)Cn1cc2c(n1)-c1c(oc(C(=O)N3CCCC3)c1C)CC2`, which “activity change, positive = activation” value is on record?
A: The value was inactive: -39.8%.

Q: For `CN(CC=CC#CC(C)(C)C)Cc1cccc2ccccc12`, which “activity change, positive = activation” value is on record?
A: Its value is inactive: 14.4%.

Q: Which “activity change, positive = activation” value does the source give for `CCN(CC)CCNC(=O)COc1ccc(OC)cc1` here?
A: Its value is inactive: -11.4%.

Q: With `COc1ccc(Cn2c(CO)cnc2SCc2ccc(F)cc2)cc1` as the molecule, how does the “activity change, positive = activation” value read?
A: Its value is inactive: -31.6%.

Q: For `CCc1ccc(Sc2cc(C(=O)O)c3ccccc3n2)cc1`, which “activity change, positive = activation” value is on record?
A: Its value is inactive: 5.25%.

Q: With `COc1ccc(-n2nc(C(=O)N(C)c3cc(Cl)ccc3OC)c3c4ccccc4n(C)c3c2=O)cc1` as the molecule, how does the “activity change, positive = activation” value read?
A: The value was inactive: -1.26%.

Q: With `Cc1ccc(NC(=O)CC2Nc3cc(C)c(C)cc3NC2=O)c(C)c1` (configuration not stated) as the molecule, how does the “activity change, positive = activation” value read?
A: The value was inactive: -5.83%.

Q: Which “activity change, positive = activation” value does the source give for `CCOc1ccccc1NC(=O)C1=C(C)Nc2ncnn2C1c1ccc(NC(C)=O)cc1` (configuration not stated) here?
A: The value was inactive: -14.8%.

Q: Which “activity change, positive = activation” value does the source give for `Cc1ccc(Cc2nc3ccccc3nc2SCC(=O)N2CCN(c3ccccc3)CC2)cc1` here?
A: The value was inactive: 0.775%.

Q: With `COc1ccc(S(=O)(=O)c2nnn(-c3ccccc3F)c2C)cc1` as the molecule, how does the “activity change, positive = activation” value read?
A: The value was inactive: -21.3%.

Q: For `Cc1nn(CCCC(=O)NCc2ccc(OC(C)C)cc2)c(=O)c2c1sc1ccccc12`, which “activity change, positive = activation” value is on record?
A: Its value is inactive: -4.86%.

Q: With `N#CC1=C2SCN(C3CCCCC3)CN2C(=O)CC1c1c(F)cccc1Cl` (configuration not stated) as the molecule, how does the “activity change, positive = activation” value read?
A: Its value is inactive: -14.5%.

Q: For `COc1ccc(NC(=O)CSc2nc3ccccc3n2CC(=O)N2CCCCC2C)cc1` (configuration not stated), which “activity change, positive = activation” value is on record?
A: The value was inactive: -8.78%.
